# The whole screen tested about 310,000 compounds, of which about 2,200 (0.71%) showed an effect of 50% or more. The effect is printed as a negative number. Some of the results follow.
# Target: human ether-à-go-go-related gene (hERG) potassium channel (human, UniProt Q12809)
# Experiment: primary screen, population patch clamp on CHO cells stably expressing hERG
# Sequence of human ether-à-go-go-related gene (hERG) potassium channel (Q12809 whole entry, looked up): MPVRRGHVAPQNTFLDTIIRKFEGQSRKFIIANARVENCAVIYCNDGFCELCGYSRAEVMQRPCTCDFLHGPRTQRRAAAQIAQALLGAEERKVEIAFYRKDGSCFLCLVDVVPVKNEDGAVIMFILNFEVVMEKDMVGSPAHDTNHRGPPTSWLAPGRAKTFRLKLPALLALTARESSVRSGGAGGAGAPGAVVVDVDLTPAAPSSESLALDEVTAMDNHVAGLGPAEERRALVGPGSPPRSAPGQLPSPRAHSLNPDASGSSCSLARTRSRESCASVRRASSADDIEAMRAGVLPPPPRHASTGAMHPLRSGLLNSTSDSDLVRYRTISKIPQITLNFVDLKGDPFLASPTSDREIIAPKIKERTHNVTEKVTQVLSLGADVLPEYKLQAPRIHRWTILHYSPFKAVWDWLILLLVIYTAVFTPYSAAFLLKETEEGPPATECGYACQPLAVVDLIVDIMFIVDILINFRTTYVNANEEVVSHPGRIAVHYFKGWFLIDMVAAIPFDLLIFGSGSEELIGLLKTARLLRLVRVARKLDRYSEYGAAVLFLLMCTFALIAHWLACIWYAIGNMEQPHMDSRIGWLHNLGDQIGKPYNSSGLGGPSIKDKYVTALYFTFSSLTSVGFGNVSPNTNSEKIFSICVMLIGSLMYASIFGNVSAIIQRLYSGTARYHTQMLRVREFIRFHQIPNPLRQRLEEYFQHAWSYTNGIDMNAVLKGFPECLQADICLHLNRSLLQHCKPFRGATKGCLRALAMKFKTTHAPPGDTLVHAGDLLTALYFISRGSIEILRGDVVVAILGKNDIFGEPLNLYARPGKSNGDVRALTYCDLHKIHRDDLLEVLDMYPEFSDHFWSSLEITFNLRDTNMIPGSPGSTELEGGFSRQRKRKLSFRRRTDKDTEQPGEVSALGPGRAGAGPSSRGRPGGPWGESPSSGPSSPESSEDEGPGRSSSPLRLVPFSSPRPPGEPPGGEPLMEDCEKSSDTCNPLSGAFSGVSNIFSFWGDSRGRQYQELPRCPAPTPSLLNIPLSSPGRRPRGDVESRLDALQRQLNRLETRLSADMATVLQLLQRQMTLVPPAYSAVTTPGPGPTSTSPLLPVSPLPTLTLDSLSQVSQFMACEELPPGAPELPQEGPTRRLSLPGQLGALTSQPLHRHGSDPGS
row,SMILES,"hERG current change (%, negative = inhibition) at 1uM [%]"
1,c1ccn2cc(C34CC5CC(CC(C5)C3)C4)nc2c1,2.86
2,Cl.O=C(NC(=S)NC1CCN(Cc2ccccc2)CC1)c1ccc(F)cc1,-57.5
3,CCc1c(C)sc(NC(=S)N2CCN(S(C)(=O)=O)CC2)c1C(=O)OC,2.61
4,Cc1ccccc1CN(c1ccc(C(=O)NCC2CCCO2)cc1)S(C)(=O)=O (centres unmarked),8.61
5,Cc1ccc(Oc2nc(-c3cccnc3)nc3ccccc23)c([N+](=O)[O-])n1,10.2
6,CCOc1ccc2nc(NCCCO)[nH]c2c1,14.9
7,CC(=O)c1c(C(C)=O)c(C)n(NC(=O)c2ccc(Cl)cc2)c1C,17.5
8,COCCNc1nnc(SCC(=O)Nc2sc3c(c2C(=O)c2ccccc2)CCCC3)s1,1.79
9,COC(=O)C(C(=O)OC)c1ccc(N)cc1,7.62
10,COc1ccc(C(=O)Nc2ccc(NC(=O)CSc3nnc(-c4ccncc4)n3C)cc2)cc1,-1.89
11,CCOC(=O)N1CCN(C(=O)CCCCCn2c(=S)[nH]c3ccsc3c2=O)CC1,3.36
12,CC(C)OCCCNC(=O)CN1C(=O)/C(=C/c2ccccc2F)Oc2ccccc21,6.64
13,COc1cccc2cc(C(=O)N(C)C)c(=O)oc12,11.6
14,O=c1oc2ccccc2n1CCCOc1ccccc1,-14.3
15,Cc1ccc2c(c1)N(C(=O)CCC(=O)Nc1ccccc1Br)CC(C)O2 (centres unmarked),9.85
16,Cc1csc(N2CCCC2c2nc3cc(C(F)(F)F)ccc3n2CCOCCO)n1 (centres unmarked),-62.8
17,CC1CCN(C(=O)CCc2ccc(S(=O)(=O)NC(C)C)cc2)CC1,10.7
18,CCN(CC(=O)NCc1cccs1)S(=O)(=O)c1ccc(F)c(F)c1F,9
19,O=C(CCC1N=C2c3ccccc3N=C(SCc3ccc(F)cc3)N2C1=O)NCc1ccco1 (centres unmarked),-22.5
20,Cc1ccc(-c2nc3ncccc3o2)cc1NC(=O)c1cccnc1,-2.14
21,COc1ccc2cc(CN(CCCN3CCOCC3)Cc3nnnn3C3CCCC3)c(=O)[nH]c2c1,-1.7
22,CCC(C)[C@H](N)c1cn([C@@H](Cc2ccc(O)cc2)C(=O)N2CCNCC2)nn1.Cl (some centres unmarked),12.8
23,COc1ccc(N2CCN(C(=O)CCCn3c(=S)[nH]c4cc5c(cc4c3=O)OCO5)CC2)cc1,9.64

row,SMILES,"hERG current change (%, negative = inhibition) at 1uM [%]"
1,O=C(O)CSc1nnc(C2CC2)n1-c1ccccc1,8.01
2,Cc1ccc(C)c(/C=N/NC(=S)NCCc2ccccc2)c1,7.28
3,O=C(c1sccc1-n1cccc1)N1CCCC1,13
4,CC(C)CNC(=O)/C=C/C(=O)O,11.3
5,O=C(COC(=O)c1ccc2c(c1)C(=O)N(Cc1ccco1)C2=O)NCC(F)(F)F,3.39
6,O=C(CNC(=O)C12CC3CC(CC(C3)C1)C2)Nc1ncccc1O,-3.13
7,CCOc1ccc(N2C(=O)/C(=C/c3cccs3)N(CC(=O)OC)C2=S)cc1,0.989
8,COC/C=C1\CN2C3C[C@@H]1[C@H]1COC4=Nc5cc(OC)c(OC)c(OC)c5[C@@]43C[C@@H]12,7.63
9,O=C(Nc1cccnc1)c1ccc(-c2cc(Cl)ccc2Cl)o1,12.1
10,O=C(O)CCCNS(=O)(=O)c1ccc2c(c1)OCCCO2,5.3
11,COCCOC(=O)c1c(C)oc2ccc(NS(=O)(=O)c3ccc(F)cc3)cc12,7.54
12,COc1ccc(N2CCN(C(=O)CNC(=O)Cn3c(C)cc4ccccc4c3=O)CC2)cc1,10.1
13,O=C(NC1CCCCC1)c1ccc(CS(=O)Cc2ccc(Cl)cc2)o1 (centres unmarked),-6.07
14,O=C(NCc1ccc2c(c1)OCO2)c1cc2ccccc2oc1=O,5.23
15,CCOC(=O)c1nc(-c2ccc3c(c2)OCO3)[nH]c1C,1.6
16,O=C(c1cc2ccccc2oc1=O)N(Cc1ccc2c(c1)OCO2)Cc1ccco1,-15.5
17,CC(OC(=O)c1ccc(NC(=O)CC#N)cc1)C(=O)Nc1ccc(Oc2ccccc2)cc1 (centres unmarked),11.1
18,CCOc1ccccc1NC(=O)N1CCC(NC(=O)c2ccccc2C)CC1,9.93
19,COCCn1nnnc1C(c1cc2cc(C)cc(C)c2[nH]c1=O)N1CCN(c2ccccc2F)CC1 (centres unmarked),-4.32
20,COc1ccc(S(=O)(=O)/C(C#N)=C/Nc2cccc(F)c2)cc1,12.9
21,COc1ccccc1NC(=O)N1c2ccccc2NC(=O)CC1C (centres unmarked),9.35
22,N#CCCN(Cc1ccccc1)C(=O)c1cccs1,12.5
23,CS(=O)(=O)c1ccc(Cl)c(NC(=O)CN2C(=O)C3CCCCC3C2=O)c1 (centres unmarked),8.07

row,SMILES,"hERG current change (%, negative = inhibition) at 1uM [%]"
1,O=C(NCCN1CCOCC1)c1ccncc1,8.53
2,CNc1nc2c(Cl)cc(Cl)cc2s1,11.7
3,COC(=O)c1nn(-c2ccccc2)c(Cl)c1/C=N/OCc1c(Cl)cccc1Cl,10.3
4,CCOC(=O)/C(C#N)=C\N(C)C,25.7
5,OCCN1CCN(Cc2cccc(Oc3ccc(Cl)cc3)c2)CC1,1.11
6,CCN(CC)Cc1c(C(=O)N/N=C/c2cccc(OCc3ccc(F)cc3)c2)nnn1-c1nonc1N,13.4
7,CN(C(=O)COC(=O)CNC(=O)c1ccccc1Cl)c1ccccc1,15.6
8,O=C(O)COCC(=O)Nc1ccc(OCCc2ccccc2)cc1,11.9
9,Cc1ccc(-n2c(-c3ccncc3)nnc2-c2cccs2)cc1,7.39
10,CCN(Cc1ccccc1)C(=O)c1ccc(C(=O)N(CC)Cc2ccccc2)cc1,8.17
11,OCCCNc1nccc(-c2cc(Nc3cccc(Cl)c3)ncn2)n1,12.8
12,COC(=O)CC1C(=O)NC(C)=C1C(=O)OC (centres unmarked),14.5
13,O=C(CSc1nnc(-c2cccs2)o1)c1cccs1,8.45
14,CCN(CC(=O)Nc1c(F)cccc1F)C(=O)c1cccc(S(=O)(=O)N2CCc3ccccc3C2)c1,-4.43
15,CCOc1ccc(C(=O)N2CCC(C(=O)c3ccc4c(c3)OCCO4)CC2)cc1,-61.5
16,O=C(Nc1ccc(S(=O)(=O)N2CCCC2)cc1)N1c2ccccc2Sc2ccccc21,30.8
17,N#Cc1c2c(c(NCc3ccco3)n3c1nc1ccccc13)CCC2,6.2
18,CCOC(=O)C1CCCN(S(=O)(=O)c2cc(Br)cc3c2N(C(=O)C2CC2)CC3)C1 (centres unmarked),20.6
19,Cc1nn(CC(C)C)c(Cl)c1C(=O)O,5.82
20,CC(=O)c1ccc(C(=O)NC2CCCN(Cc3ccccc3F)C2)cc1 (centres unmarked),21
21,O=C(CSc1ccccc1)NCC1(N2CCCCC2)CCCCC1,17
22,O=C(NCc1ccccn1)Nc1ccccc1C(F)(F)F,13
23,Cc1cccc(N2CN=C3SCC(=O)N3C2)c1,12.8

row,SMILES,"hERG current change (%, negative = inhibition) at 1uM [%]"
1,O=C1Nc2ccccc2OC1CC(=O)N1CCCC1 (centres unmarked),1.85
2,O=c1[nH]c(=O)c2cc([N+](=O)[O-])cc([N+](=O)[O-])c2[nH]1,11.1
3,CN(C)c1ccc(/C=N/NC(=O)c2cc(=O)[nH]c3ccccc23)cc1,12.4
4,CN(CCc1ccccn1)C(=O)CCC1CCCN(C(=O)c2cscn2)C1 (centres unmarked),2.11
5,CCN(Cc1ccccc1)C(=O)CN1C(=O)NC2(CC(C)CC(C)(C)C2)C1=O (centres unmarked),2.29
6,COc1ccccc1OCC(=O)Nc1sc2c(c1C(=O)NCC1CCCO1)CCC2 (centres unmarked),13.6
7,Cc1nn(C)c(C)c1NC(=O)/C(C#N)=C\N(C)C,-0.397
8,CN1CCN(CCCNc2c(C=O)c(=O)[nH]c3ccccc23)CC1,16.7
9,Cc1ccc2nc3c(cc(C(=O)NCc4ccco4)c(=N)n3Cc3ccco3)c(=O)n2c1,-86.5
10,CN(C)/C=C1\C(=O)N(c2ccc(F)cc2F)C(c2cccnc2)S1(=O)=O (centres unmarked),11.2
11,Cn1c(C(=O)N2CCCC(C(=O)O)C2)cc2sccc21 (centres unmarked),15.5
12,C=CCN1C(=O)/C(=C2/Sc3ccc(OC)cc3N2C)SC1=Nc1cccc(O)c1,17.3
13,COc1ccc(-c2nc3cccc(C)n3c2NCc2ccco2)cc1OC,5.43
14,Cc1ccc2c(c1)-c1c(cnn1CC(=O)O)CO2,17.2
15,Cc1cccc(C)c1-n1c(C)nn(-c2ncc(C(F)(F)F)cc2Cl)c1=O,1.95
16,Cc1ccc(-c2nnn(CC(=O)N(Cc3ccco3)C(C(=O)NC(C)(C)C)c3ccc(C)o3)n2)o1 (centres unmarked),19
17,CCOc1cc(CN2CCCC(N3CCN(c4ccc(F)cc4)CC3)C2)ccc1OC (centres unmarked),-6.32
18,CCNc1c2c3c(cccc3n(C)c1=O)C(=O)c1ccccc1-2,7.38
19,Cc1cccc(C(=O)O/N=C2\CCSc3ccc(C)cc32)c1,9.95
20,CCOCCCNCc1cc(Cl)ccc1OCC.Cl,0.597

# Source: article PMC4336329 (PLoS ONE, 2015)
